Measurements from publication PMC8141872 (The Journal of Biological Chemistry, 2021).

T1: Ras suppressor-1 (Rsu-1), wild type, full length (human, UniProt Q15404 1-277)
T1 construct: after thrombin cleavage a few of its residues probably remain (surmised); also called Rsu-1 (WT); Rsu-1 WT; not shown: His6, N-terminal, cleaved
T1 sequence (looked up): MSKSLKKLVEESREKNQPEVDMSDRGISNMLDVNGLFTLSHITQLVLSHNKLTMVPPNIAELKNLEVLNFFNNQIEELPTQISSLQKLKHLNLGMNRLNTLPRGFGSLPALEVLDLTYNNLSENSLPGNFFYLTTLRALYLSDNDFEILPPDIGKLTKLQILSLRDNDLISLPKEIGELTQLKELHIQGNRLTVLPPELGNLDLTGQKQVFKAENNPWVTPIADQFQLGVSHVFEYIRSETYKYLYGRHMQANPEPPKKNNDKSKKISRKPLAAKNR

T2: Rsu-1 double mutant FRAA (Phe71Ala, Arg165Ala) (human, UniProt Q15404 1-277, Phe71Ala | Arg165Ala)
T2 construct: human Ras suppressor-1 (Rsu-1), residues 1-277, with Phe71Ala and Arg165Ala; also called Rsu-1 (FRAA); double-negative mutant; source: baculovirus-infected Sf-9 insect cells, purified as for the wild type; not shown: His6, N-terminal, cleaved
T2 sequence (looked up): T1 sequence (looked up) with F71A, R165A

B1: GST-fused PINCH-1 LIM4-5 domains ([…]) (domain or fragment, human)
chain: GVPICGACRRPIEGRVVNAMGKQWHVEHFVCAKCEKPFLGHRHYERKGLAYCETHYNQL[here about 80 residues without letters]
notes: human PINCH-1 LIM4-5 domains, […]; Cloned in pGEX4T1; held on the anti-GST biosensor; also called PINCH-1 LIM4-5 domains (WT); source: E. coli Rosetta 2 (DE3), purified (GSTrap)
B2: GST-fused PINCH-1 LIM5 domain ([…]) (domain or fragment)
chain: not shown
notes: human PINCH-1 LIM5 domain, […]; Cloned in pGEX4T1; held on the anti-GST biosensor; also called PINCH-1 LIM5 domain (WT); source: E. coli Rosetta 2 (DE3), purified (GSTrap)
B3: GST-fused PINCH-1 LIM5 domain ([…]) D295V (domain or fragment)
chain: not shown
notes: human PINCH-1 LIM5 domain, […], with Asp295Val; also called PINCH-1 LIM5 domain (D295V); source: E. coli Rosetta 2 (DE3), purified (GSTrap)

Columns and labels:
[1] = target: T1, Ras suppressor-1 (Rsu-1), wild type, …; assay: BLI; BLItz; GST-fused PINCH protein or GST (0.05 mg/ml) loaded on anti-GST biosensor, Rsu-1 WT or mutant in the mobile phase; 20 mM Tris pH 7.5, 150 mM NaCl, 1 mg/ml BSA, 0.05% Tween-20; 1:1 global fit; at least three measurements; conditions: both partners purified
[2] = target: T2, Rsu-1 double mutant FRAA (Phe71Ala, …); assay: as above; conditions: both partners purified

Binder	Kd [1] [nM]	Kd [2] [nM]
B1	1.37 ± 0.5	–
B2	1.77 ± 0.59	1390 ± 100
B3	1520 ± 200	–

Positions count from the first letter of the chain named. Names and notes keep the numbering of the source.
